# Laboratory results published in the supplement of paper PMC8728848.
# Some of the results follow.
# B1: NPA (Narcissus pseudonarcissus), C0HM45 (protein)
# chain: DNILYSGETLSPGEFLNNGRYVFIMQEDCNLVLYDVDKPIWATNTGGLDRRCHLSMQSDGNLVVYSPRNNPIWASNTGGENGNYVCVLQKDRNVVIYGTARWATGTNIH
# Legend:
# Test in all cases: glycan array binding signal (z-score within array); higher = stronger binding
# Details in all cases: glycan notation: IUPAC condensed, linker removed
# [1] = biological target: GlcNAc(b1-2)[GlcNAc(b1-4)]Man(a1-3)[GlcNAc(b1-4)][GlcNAc(b1-2)[GlcNAc(b1-6)]Man(a1-6)]Man(b1-4)GlcNAc(b1-4)GlcNAc
# How it was run: (§1)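 Glycan array data were curated from 3228 arrays in the Consortium for Functional Glycomics database and kept only where the protein sequence was available. Glycan names were converted to IUPAC-condensed notation, and columns mapping to the same glycan were averaged. The binding signal is a within-array Z-score, averaged across arrays of the same protein sequence at different concentrations or buffers and across linkers. Negative Z-scores can be read as non-binding.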
# [2] = biological target: GlcNAc(b1-2)[GlcNAc(b1-4)]Man(a1-3)[GlcNAc(b1-4)][GlcNAc(b1-2)[GlcNAc(b1-6)]Man(a1-6)]Man(b1-4)GlcNAc(b1-4)[Fuc(a1-6)]GlcNAc
# How it was run: as §1
# [3] = biological target: GlcNAc(b1-2)[GlcNAc(b1-6)]Man(a1-6)[GlcNAc(b1-2)Man(a1-3)]Man(b1-4)GlcNAc(b1-4)GlcNAc
# How it was run: as §1
# [4] = biological target: GlcNAc(b1-2)[GlcNAc(b1-6)]Man(a1-6)[GlcNAc(b1-2)Man(a1-3)]Man(b1-4)GlcNAc(b1-4)[Fuc(a1-6)]GlcNAc
# How it was run: as §1
# [5] = biological target: GlcNAc(b1-2)[GlcNAc(b1-6)]Man(a1-6)[GlcNAc(b1-4)][GlcNAc(b1-2)Man(a1-3)]Man(b1-4)GlcNAc(b1-4)GlcNAc
# How it was run: as §1
# GlcNAc(b1-3)Fuc = biological target: GlcNAc(b1-3)Fuc
# How it was run: as §1
# GlcNAc(b1-3)Gal = biological target: GlcNAc(b1-3)Gal
# How it was run: as §1
# [6] = biological target: GlcNAc(b1-3)Gal(b1-3)GalNAc
# How it was run: as §1
# GlcNAc(b1-3)Gal(b1-4)Glc = biological target: GlcNAc(b1-3)Gal(b1-4)Glc
# How it was run: as §1
# [7] = biological target: GlcNAc(b1-3)Gal(b1-4)GlcNAc
# How it was run: as §1
# [8] = biological target: GlcNAc(b1-3)Gal(b1-4)GlcNAc(b1-2)Man(a1-3)[GlcNAc(b1-3)Gal(b1-4)GlcNAc(b1-2)Man(a1-6)]Man(b1-4)GlcNAc(b1-4)GlcNAc
# How it was run: as §1
# [9] = biological target: GlcNAc(b1-3)Gal(b1-4)GlcNAc(b1-2)Man(a1-3)[GlcNAc(b1-3)Gal(b1-4)GlcNAc(b1-2)Man(a1-6)]Man(b1-4)GlcNAc(b1-4)[Fuc(a1-6)]GlcNAc
# How it was run: as §1
# [10] = biological target: GlcNAc(b1-3)Gal(b1-4)GlcNAc(b1-2)[GlcNAc(b1-3)Gal(b1-4)GlcNAc(b1-6)]Man(a1-6)[GlcNAc(b1-3)Gal(b1-4)GlcNAc(b1-2)Man(a1-3)]Man(b1-4)GlcNAc(b1-4)GlcNAc
# How it was run: as §1
# [11] = biological target: GlcNAc(b1-3)Gal(b1-4)GlcNAc(b1-3)Gal(b1-4)GlcNAc
# How it was run: as §1
# [12] = biological target: GlcNAc(b1-3)Gal(b1-4)GlcNAc(b1-3)Gal(b1-4)GlcNAc(b1-2)Man(a1-3)[GlcNAc(b1-3)Gal(b1-4)GlcNAc(b1-3)Gal(b1-4)GlcNAc(b1-2)Man(a1-6)]Man(b1-4)GlcNAc(b1-4)GlcNAc
# How it was run: as §1
# [13] = biological target: GlcNAc(b1-3)Gal(b1-4)GlcNAc(b1-3)Gal(b1-4)GlcNAc(b1-2)Man(a1-3)[GlcNAc(b1-3)Gal(b1-4)GlcNAc(b1-3)Gal(b1-4)GlcNAc(b1-2)Man(a1-6)]Man(b1-4)GlcNAc(b1-4)[Fuc(a1-6)]GlcNAc
# How it was run: as §1
# [14] = biological target: GlcNAc(b1-3)Gal(b1-4)GlcNAc(b1-3)Gal(b1-4)GlcNAc(b1-2)[GlcNAc(b1-3)Gal(b1-4)GlcNAc(b1-3)Gal(b1-4)GlcNAc(b1-6)]Man(a1-6)[GlcNAc(b1-3)Gal(b1-4)GlcNAc(b1-3)Gal(b1-4)GlcNAc(b1-2)Man(a1-3)]Man(b1-4)GlcNAc(b1-4)[Fuc(a1-6)]GlcNAc
# How it was run: as §1
# [15] = biological target: GlcNAc(b1-3)Gal(b1-4)GlcNAc(b1-3)Gal(b1-4)GlcNAc(b1-3)Gal(b1-4)GlcNAc(b1-2)Man(a1-3)[GlcNAc(b1-3)Gal(b1-4)GlcNAc(b1-3)Gal(b1-4)GlcNAc(b1-3)Gal(b1-4)GlcNAc(b1-2)Man(a1-6)]Man(b1-4)GlcNAc(b1-4)GlcNAc
# How it was run: as §1
# [16] = biological target: GlcNAc(b1-3)Gal(b1-4)GlcNAc(b1-3)Gal(b1-4)GlcNAc(b1-3)Gal(b1-4)GlcNAc(b1-2)Man(a1-3)[GlcNAc(b1-3)Gal(b1-4)GlcNAc(b1-3)Gal(b1-4)GlcNAc(b1-3)Gal(b1-4)GlcNAc(b1-2)Man(a1-6)]Man(b1-4)GlcNAc(b1-4)[Fuc(a1-6)]GlcNAc
# How it was run: as §1
# [17] = biological target: GlcNAc(b1-3)Gal(b1-4)GlcNAc(b1-3)Gal(b1-4)GlcNAc(b1-3)Gal(b1-4)GlcNAc(b1-2)[GlcNAc(b1-3)Gal(b1-4)GlcNAc(b1-3)Gal(b1-4)GlcNAc(b1-3)Gal(b1-4)GlcNAc(b1-6)]Man(a1-6)[GlcNAc(b1-3)Gal(b1-4)GlcNAc(b1-3)Gal(b1-4)GlcNAc(b1-3)Gal(b1-4)GlcNAc(b1-2)Man(a1-3)]Man(b1-4)GlcNAc(b1-4)[Fuc(a1-6)]GlcNAc
# How it was run: as §1
# [18] = biological target: GlcNAc(b1-3)Gal(b1-4)GlcNAc(b1-3)Gal(b1-4)GlcNAc(b1-3)Gal(b1-4)GlcNAc(b1-3)Gal(b1-4)GlcNAc(b1-2)Man(a1-3)[GlcNAc(b1-3)Gal(b1-4)GlcNAc(b1-3)Gal(b1-4)GlcNAc(b1-3)Gal(b1-4)GlcNAc(b1-3)Gal(b1-4)GlcNAc(b1-2)Man(a1-6)]Man(b1-4)GlcNAc(b1-4)GlcNAc
# How it was run: as §1
# [19] = biological target: GlcNAc(b1-3)Gal(b1-4)GlcNAc(b1-3)Gal(b1-4)GlcNAc(b1-3)Gal(b1-4)GlcNAc(b1-3)Gal(b1-4)GlcNAc(b1-2)Man(a1-3)[GlcNAc(b1-3)Gal(b1-4)GlcNAc(b1-3)Gal(b1-4)GlcNAc(b1-3)Gal(b1-4)GlcNAc(b1-3)Gal(b1-4)GlcNAc(b1-2)Man(a1-6)]Man(b1-4)GlcNAc(b1-4)[Fuc(a1-6)]GlcNAc
# How it was run: as §1
# [20] = biological target: GlcNAc(b1-3)Gal(b1-4)GlcNAc(b1-3)Gal(b1-4)GlcNAc(b1-3)Gal(b1-4)GlcNAc(b1-3)Gal(b1-4)GlcNAc(b1-2)[GlcNAc(b1-3)Gal(b1-4)GlcNAc(b1-3)Gal(b1-4)GlcNAc(b1-3)Gal(b1-4)GlcNAc(b1-3)Gal(b1-4)GlcNAc(b1-6)]Man(a1-6)[GlcNAc(b1-3)Gal(b1-4)GlcNAc(b1-3)Gal(b1-4)GlcNAc(b1-3)Gal(b1-4)GlcNAc(b1-3)Gal(b1-4)GlcNAc(b1-2)Man(a1-3)]Man(b1-4)GlcNAc(b1-4)[Fuc(a1-6)]GlcNAc
# How it was run: as §1
# [21] = biological target: GlcNAc(b1-3)Gal(b1-4)GlcNAc(b1-3)Gal(b1-4)GlcNAc(b1-3)GalNAc
# How it was run: as §1
# [22] = biological target: GlcNAc(b1-3)Gal(b1-4)GlcNAc(b1-3)GalNAc
# How it was run: as §1
# [23] = biological target: GlcNAc(b1-3)Gal(b1-4)GlcNAc(b1-3)[GlcNAc(b1-3)Gal(b1-4)GlcNAc(b1-3)]GalNAc
# How it was run: as §1
# [24] = biological target: GlcNAc(b1-3)Gal(b1-4)GlcNAc(b1-6)[Gal(b1-3)]GalNAc
# How it was run: as §1
# [25] = biological target: GlcNAc(b1-3)Gal(b1-4)GlcNAc(b1-6)[GlcNAc(b1-3)Gal(b1-3)]GalNAc
# How it was run: as §1
# [26] = biological target: GlcNAc(b1-3)Gal(b1-4)GlcNAc(b1-6)[GlcNAc(b1-3)]Gal(b1-4)GlcNAc
# How it was run: as §1
# GlcNAc(b1-3)GalNAc = biological target: GlcNAc(b1-3)GalNAc
# How it was run: as §1
# GlcNAc(b1-3)Man = biological target: GlcNAc(b1-3)Man
# How it was run: as §1
# [27] = biological target: GlcNAc(b1-3)[GlcNAc(b1-4)][GlcNAc(b1-6)]GlcNAc
# How it was run: as §1
# [28] = biological target: GlcNAc(b1-3)[GlcNAc(b1-6)]Gal(b1-4)GlcNAc
# How it was run: as §1
# [29] = biological target: GlcNAc(b1-3)[GlcNAc(b1-6)]GalNAc
# How it was run: as §1
# [30] = biological target: GlcNAc(b1-3)[GlcNAc(b1-6)]GlcNAc(b1-4)GlcNAc
# How it was run: as §1
# [31] = biological target: GlcNAc(b1-4)Gal(b1-4)GlcNAc
# How it was run: as §1
# GlcNAc(b1-4)GlcNAc = biological target: GlcNAc(b1-4)GlcNAc
# How it was run: as §1
# [32] = biological target: GlcNAc(b1-4)GlcNAc(b1-4)GlcNAc
# How it was run: as §1
# [33] = biological target: GlcNAc(b1-4)GlcNAc(b1-4)GlcNAc(b1-4)GlcNAc(b1-4)GlcNAc
# How it was run: as §1
# [34] = biological target: GlcNAc(b1-4)GlcNAc(b1-4)GlcNAc(b1-4)GlcNAc(b1-4)GlcNAc(b1-4)GlcNAc
# How it was run: as §1
# [35] = biological target: GlcNAc(b1-4)[GlcNAc(b1-6)]GalNAc
# How it was run: as §1
# [36] = biological target: GlcNAc(b1-6)Gal(b1-4)GlcNAc
# How it was run: as §1
# GlcNAc(b1-6)GalNAc = biological target: GlcNAc(b1-6)GalNAc
# How it was run: as §1
# [37] = biological target: GlcNAc6S(b1-3)Gal(b1-4)GlcNAc
# How it was run: as §1
# Kdn(a2-3)Gal(b1-3)GalNAc = biological target: Kdn(a2-3)Gal(b1-3)GalNAc
# How it was run: as §1
binder,measurement,setting,value
B1,glycan array binding signal (z-score),[1],-0.149
same,glycan array binding signal (z-score),[2],-0.14
same,glycan array binding signal (z-score),[3],-0.143
same,glycan array binding signal (z-score),[4],-0.14
same,glycan array binding signal (z-score),[5],-0.156
same,glycan array binding signal (z-score),GlcNAc(b1-3)Fuc,-0.138
same,glycan array binding signal (z-score),GlcNAc(b1-3)Gal,-0.152
same,glycan array binding signal (z-score),[6],-0.134
same,glycan array binding signal (z-score),GlcNAc(b1-3)Gal(b1-4)Glc,-0.157
same,glycan array binding signal (z-score),[7],-0.154
same,glycan array binding signal (z-score),[8],-0.101
same,glycan array binding signal (z-score),[9],0.025
same,glycan array binding signal (z-score),[10],-0.038
same,glycan array binding signal (z-score),[11],-0.159
same,glycan array binding signal (z-score),[12],0.057
same,glycan array binding signal (z-score),[13],-0.065
same,glycan array binding signal (z-score),[14],0
same,glycan array binding signal (z-score),[15],-0.096
same,glycan array binding signal (z-score),[16],-0.041
same,glycan array binding signal (z-score),[17],0.035
same,glycan array binding signal (z-score),[18],-0.062
same,glycan array binding signal (z-score),[19],-0.07
same,glycan array binding signal (z-score),[20],-0.003
same,glycan array binding signal (z-score),[21],-0.139
same,glycan array binding signal (z-score),[22],-0.118
same,glycan array binding signal (z-score),[23],-0.101
same,glycan array binding signal (z-score),[24],-0.143
same,glycan array binding signal (z-score),[25],-0.131
same,glycan array binding signal (z-score),[26],-0.141
same,glycan array binding signal (z-score),GlcNAc(b1-3)GalNAc,-0.146
same,glycan array binding signal (z-score),GlcNAc(b1-3)Man,-0.145
same,glycan array binding signal (z-score),[27],-0.134
same,glycan array binding signal (z-score),[28],-0.159
same,glycan array binding signal (z-score),[29],-0.147
same,glycan array binding signal (z-score),[30],-0.205
same,glycan array binding signal (z-score),[31],-0.169
same,glycan array binding signal (z-score),GlcNAc(b1-4)GlcNAc,-0.124
same,glycan array binding signal (z-score),[32],-0.122
same,glycan array binding signal (z-score),[33],-0.127
same,glycan array binding signal (z-score),[34],-0.115
same,glycan array binding signal (z-score),[35],-0.146
same,glycan array binding signal (z-score),[36],-0.138
same,glycan array binding signal (z-score),GlcNAc(b1-6)GalNAc,-0.139
same,glycan array binding signal (z-score),[37],-0.137
same,glycan array binding signal (z-score),Kdn(a2-3)Gal(b1-3)GalNAc,-0.132
